According to the supplement of paper PMC4967469:
pIC50: −log10 of the molar value. Lines with a small IC50 respond at low doses; where the fit passes the top or lowest dose, that dose stands as a limit. For AUC the same curve is integrated over the 256-fold range of doses and scaled to a fraction; the more sensitive the line, the further below 1. For part of these data: Where the top dose is marked as inferred, it comes from the curve model; the source does not state it.

Tests used:
Experiment in all cases: Viability of human cancer cell lines after 72 h of drug (GDSC screen)
Bexarotene = compound: C=C(c1ccc(C(=O)O)cc1)c1cc2c(cc1C)C(C)(C)CCC2(C)C [Bexarotene]; details: top dose 8 µM
Description: (§1)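 Human cancer cell lines in 384-well plates, medium with 10% serum, drug for 72 h over a 256-fold dose range (nine 2-fold or five 4-fold steps up to the top dose). Adherent lines were fixed and stained with the nucleic acid dye Syto60, suspension lines read with resazurin; signal relative to control wells, capped at 0 and 100%. One two-parameter sigmoid per drug and line, fitted in a mixed model over all curves with the slope shared within a line.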

NPK76-II-72-1 = compound: COc1cc(C(=O)NC2CCN(C)CC2)ccc1Nc1ncc2c(n1)N(C1CCCC1)C(C)CC(=O)N2C [NPK76-II-72-1]; details: top dose 10.24 µM; top dose inferred
Description: as §1

Etoposide = compound: COc1cc([C@@H]2c3cc4c(cc3[C@@H](O[C@@H]3O[C@@H]5CO[C@@H](C)O[C@H]5[C@H](O)[C@H]3O)[C@H]3COC(=O)[C@H]23)OCO4)cc(OC)c1O [Etoposide]; details: top dose 16 µM
Description: as §1

YK 4-279 = compound: COc1ccc(C(=O)CC2(O)C(=O)Nc3c(Cl)ccc(Cl)c32)cc1 [YK 4-279]; details: top dose 10 µM
Description: as §1

BMS-345541 = compound: Cc1ccc2nc(NCCN)c3ncc(C)n3c2c1 [BMS-345541]; details: top dose 16 µM
Description: as §1

AZD7762 = compound: NC(=O)Nc1cc(-c2cccc(F)c2)sc1C(=O)N[C@H]1CCCNC1 [AZD7762]; details: top dose 2 µM
Description: as §1

GSK-650394 = compound: O=C(O)c1ccc(-c2c[nH]c3ncc(-c4ccccc4)cc23)cc1C1CCCC1 [GSK-650394]; details: top dose 16 µM; top dose inferred
Description: as §1

XAV 939 = compound: Oc1nc(-c2ccc(C(F)(F)F)cc2)nc2c1CSCC2 [XAV 939]; details: top dose 5 µM; top dose inferred
Description: as §1

Cell Line | AUC (Bexarotene) | pIC50 (Bexarotene) | AUC (NPK76-II-72-1) | pIC50 (NPK76-II-72-1) | AUC (Etoposide) | pIC50 (Etoposide) | AUC (YK 4-279) | pIC50 (YK 4-279) | AUC (BMS-345541) | pIC50 (BMS-345541) | AUC (AZD7762) | pIC50 (AZD7762) | AUC (GSK-650394) | pIC50 (GSK-650394) | AUC (XAV 939) | pIC50 (XAV 939)
NCI-H720 (lung carcinoid, suspension) | 0.99 | < 5.10 | 0.991 | < 4.99 | 0.989 | < 4.80 | 0.914 | < 5.00 | 0.989 | < 4.80 | 0.737 | 6.26 | 0.992 | < 4.80 | 0.985 | < 5.30
NCI-H727 (lung carcinoid, adherent) | 0.935 | < 5.10 | 0.962 | < 4.99 | 0.97 | < 4.80 | 0.921 | < 5.00 | 0.809 | < 4.80 | 0.679 | 6.26 | 0.821 | < 4.80 | 0.972 | < 5.30
NCI-H747 (large intestine, adherent) | 0.958 | < 5.10 | 0.894 | < 4.99 | 0.844 | 4.82 | 0.819 | 5.13 | 0.7 | 5.38 | 0.916 | < 5.70 | 0.932 | < 4.80 | 0.924 | < 5.30
NCI-H810 (large cell lung carcinoma, adherent) | 0.928 | < 5.10 | 0.648 | 5.79 | 0.585 | 5.77 | 0.706 | 5.64 | 0.874 | 4.84 | 0.862 | 5.80 | 0.9 | < 4.80 | 0.942 | < 5.30
NCI-H841 (small cell lung carcinoma, adherent) | 0.967 | < 5.10 | 0.909 | < 4.99 | 0.871 | 4.82 | 0.691 | 5.67 | 0.875 | 4.80 | 0.79 | 6.05 | 0.985 | < 4.80 | 0.976 | < 5.30
NCI-H847 (small cell lung carcinoma, adherent) | 0.982 | < 5.10 | 0.453 | 6.31 | 0.827 | 5.13 | 0.607 | 5.94 | 0.84 | 5.09 | 0.818 | 6.06 | 0.378 | 6.30 | 0.988 | < 5.30
NCI-H1092 (small cell lung carcinoma, suspension) | 0.989 | < 5.10 | 0.847 | 5.12 | 0.96 | < 4.80 | 0.918 | < 5.00 | 0.849 | 4.91 | 0.986 | < 5.70 | 0.984 | < 4.80 | 0.984 | < 5.30
NCI-H1155 (large cell lung carcinoma, suspension) | 0.982 | < 5.10 | 0.909 | 5.01 | 0.874 | – | 0.775 | 5.49 | 0.898 | 4.86 | 0.672 | 6.47 | 0.993 | < 4.80 | 0.973 | < 5.30
NCI-H1304 (small cell lung carcinoma, suspension) | 0.988 | < 5.10 | 0.988 | < 4.99 | 0.629 | 5.63 | 0.985 | < 5.00 | 0.826 | 4.97 | 0.947 | < 5.70 | 0.823 | 4.98 | 0.986 | < 5.30
NCI-H1395 (lung adenocarcinoma, adherent) | 0.969 | < 5.10 | 0.886 | < 4.99 | 0.961 | < 4.80 | 0.776 | 5.27 | 0.822 | 4.86 | 0.586 | 6.63 | 0.972 | < 4.80 | 0.956 | < 5.30
NCI-H1435 (lung adenocarcinoma, semi-adherent) | 0.942 | < 5.10 | 0.993 | < 4.99 | 0.861 | 4.95 | 0.991 | < 5.00 | 0.946 | < 4.80 | 0.983 | < 5.70 | 0.965 | < 4.80 | 0.988 | < 5.30
NCI-H1436 (small cell lung carcinoma, suspension) | 0.986 | < 5.10 | 0.696 | 5.61 | 0.968 | < 4.80 | 0.828 | 5.13 | 0.842 | 4.87 | 0.888 | < 5.70 | 0.901 | < 4.80 | 0.974 | < 5.30
NCI-H1563 (lung adenocarcinoma, adherent) | 0.967 | < 5.10 | 0.941 | < 4.99 | 0.735 | 5.27 | 0.852 | < 5.00 | 0.866 | < 4.80 | 0.695 | 6.31 | 0.973 | < 4.80 | 0.979 | < 5.30
NCI-H1568 (lung adenocarcinoma, adherent) | 0.949 | < 5.10 | 0.982 | < 4.99 | 0.675 | 5.46 | 0.792 | 5.23 | 0.867 | < 4.80 | 0.716 | 6.22 | 0.912 | < 4.80 | 0.911 | < 5.30
NCI-H1581 (large cell lung carcinoma, semi-adherent) | 0.984 | < 5.10 | 0.785 | 5.40 | 0.935 | < 4.80 | 0.612 | 5.91 | 0.896 | < 4.80 | 0.871 | 5.79 | 0.987 | < 4.80 | 0.975 | < 5.30
NCI-H1623 (lung adenocarcinoma, adherent) | 0.969 | < 5.10 | 0.976 | < 4.99 | 0.794 | 5.03 | 0.94 | < 5.00 | 0.954 | < 4.80 | 0.849 | < 5.70 | 0.981 | < 4.80 | 0.961 | < 5.30
